From PubChem BioAssay AID1745853 (National Center for Advancing Translational Sciences (NCATS), 2022)
Values joined by “and” are separate entries in the source; they are usually repeats but may differ in a detail not shown here. Equal entries are not always repeated. Some of the results follow. The main result of the screen is listed elsewhere. These columns were measured beside it and carry no call.

Experiments:
Test in all cases: Primary Screen for Target Class Profiling of Small Molecule Inhibitors of Methyltransferases
[1] = target: Glycine N-methyltransferase (Homo sapiens) (UniProt Q14749); settings: purified enzyme, MTase-Glo SAH luminescence; measured here: GNMT inhibition; at 40 µM; stronger effect = lower value
How it was run: (§1)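 Each enzyme was reacted with SAM and its substrate, with compounds tested once at 40 uM; SAH formed was read by MTase-Glo luminescence.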

[2] = target: Guanidinoacetate N-methyltransferase (Homo sapiens) (UniProt Q14353); settings: purified enzyme, MTase-Glo SAH luminescence; measured here: GAMT inhibition; at 40 µM; stronger effect = lower value
How it was run: as §1

[3] = target: Histamine N-methyltransferase (Homo sapiens) (UniProt P50135); settings: purified enzyme, MTase-Glo SAH luminescence; measured here: HNMT inhibition; at 40 µM; stronger effect = lower value
How it was run: as §1

[4] = target: Nicotinamide N-methyltransferase (Homo sapiens) (UniProt P40261); settings: purified enzyme, MTase-Glo SAH luminescence; measured here: NNMT inhibition; at 40 µM; stronger effect = lower value
How it was run: as §1

[5] = target: Phenylethanolamine N-methyltransferase (Homo sapiens) (UniProt P11086); settings: purified enzyme, MTase-Glo SAH luminescence; measured here: PNMT inhibition; at 40 µM; stronger effect = lower value
How it was run: as §1
% is set by controls: 0 for no effect and ±100 for the full control effect.

Row | SMILES | activity change, negative = inhibition [1] | activity change, negative = inhibition [2] | activity change, negative = inhibition [3] | activity change, negative = inhibition [4] | activity change, negative = inhibition [5]
1 | CC(O)CCC1C(CO[C@@H]2O[C@H](CO)[C@@H](O)[C@H](O)[C@H]2O)CC(O)CC1(C)C (stereo partly specified) | -0.213% | 2.55% | 4.26% | -8.21% | -3.21%
2 | COc1cc2ncnc(-n3nc(-c4ccccn4)nc3N)c2cc1OC | -6.32% | -1.27% | 2.19% | -11.2% | -4.1%
3 | CCCCNC(=O)CCn1ccc2cc(S(=O)(=O)N3CCCCC3)ccc21 | 6.19% | 1.81% | 2.66% | 5.07% | 2.83%
4 | COCCn1c(C)cnc1CC1CCN(C(=O)C2CC2)CC1 | -0.424% | -5.08% | -0.939% | -1.48% | 0.823%
5 | CC(C)CNC(=O)c1ccc2c(=O)n(Cc3ccccc3)c3n[nH]c(=O)n3c2c1 | -8.03% | -2.93% | -6.59% | -22.5% | -17.3%
6 | CCCn1c(=O)c2ccc(C(=O)NC3CCCC3)cc2n2c(SCC(N)=O)nnc12 | 6.63% | 0% | 9.32% | 1.04% | 2.36%
7 | CCC/C=C/C(=O)O[C@H]1CC(C)(C)CC2[C@@]13[C@H](O)C[C@]1(C)[C@@]2(CCC2[C@@]4(C)CC[C@H](O[C@@H]5O[C@H](C(=O)O)[C@@H](O)[C@H](O[C@@H]6O[C@H](CO)[C@H](O)[C@H](O)[C@H]6O[C@@H]6O[C@@H](C)[C@H](O)[C@@H](O)[C@H]6O[C@@H]6OC[C@](O)(CO)[C@H]6O)[C@H]5O[C@@H]5O[C@H](CO)[C@H](O)[C@H](O)[C@H]5O)C(C)(C)C4CC[C@]21C)O[C@H]3O (stereo partly specified) | -0.812% | -3.33% | 6.53% | -11.6% | 5.92%
8 | O=c1[nH]c2ccc(S(=O)(=O)Nc3ccc(N4CCOCC4)cc3)cc2[nH]1 | 10.5% | 0% | 11.4% | 0.577% | -4.88%
9 | CC(C)Cn1c(=O)c2ccccc2n2c(SCC(=O)Nc3cccc(Cl)c3)nnc12 | -3.48% | 2.52% | 7.56% | -8.15% | 1.47%
10 | COc1cccc(CN2C(=O)c3nc4ccccc4n3CC2(C)C(=O)NC2CCCC2)c1OC (stereo unspecified) | -0.619% | 2.87% | -1.4% | -0.095% | -4.8%
11 | Cc1ccc(C)c(C(=O)Cn2nc3n(CC(C)C)c(=O)c4ccc(C(=O)NC5CCCC5)cc4n3c2=O)c1 | 2.75% | 0% | 10% | 1.45% | 5.05%
12 | Cc1ccc(Cn2c(=O)c3ccccc3n3c(=O)n(CC(=O)c4cc(C)ccc4C)nc23)cc1 | 2.77% | 5.7% | 4.34% | -4.26% | 0.729%
13 | CSc1ccc(C(=O)N[C@@H]2CCCC[C@@H]2NC(=O)CNC(=O)c2cc(C(F)(F)F)ccc2NC(=O)NC(C)C)cc1 | -5.91% | -6.53% | 3.92% | -32.8% | -6.99%
14 | Cc1ccc(-c2cn3c(n2)N(S(C)(=O)=O)CCC3)cc1 | -5.38% | -6.65% | -18.2% | -8.76% | -1.65%
15 | Cc1nc2c3ccccc3n(CC(=O)N3CCN(c4ccccc4F)CC3)c(=O)n2n1 | -6.66% | 0% | -9.68% | -10.9% | -10.8%
16 | CC(C)NC(=O)c1ccc2c(=O)n(C(C)C)c3nn(CC(=O)NC(C)(C)C)c(=O)n3c2c1 | 7.55% | 0.932% | 6.53% | 1.66% | 5.78%
17 | CC(C)C(CO)Nc1nc(Nc2ccc(C(=O)O)c(Cl)c2)c2ncn(C(C)C)c2n1 (stereo unspecified) | -7.79% | -19.3% | -12.1% | -30.2% | -17%
18 | O=C(CCn1ccc2cc(S(=O)(=O)N3CCCC3)ccc21)NCc1ccc(Cl)cc1 | 0.037% | 3.53% | 3.8% | -5.49% | 0.128%
19 | COc1ccccc1CCNC(=O)c1cc2n(n1)CC(C)(C(=O)NCc1ccccc1)N(C)C2=O (stereo unspecified) | 5.34% | 0% | 5.48% | 7.28% | 4.36%
20 | CCCn1c(=O)c2ccc(C(=O)NC(C)C)cc2n2c(SCC(=O)NCc3ccc(C)cc3)nnc12 | -3.62% | 0% | 2.3% | -7.76% | -6.35%
21 | CC(=O)N[C@@H](CC(=O)O)C(=O)N[C@@H](CCC(=O)O)C(=O)N[C@H](C(=O)N[C@@H](CC(=O)O)C(=O)Nc1ccc2c(C)cc(=O)oc2c1)C(C)C | -3.51% | -12% | -3.26% | -44.8% | -29.7%
22 | CCC(C)NC(=O)Cn1nc2n(C(C)C)c(=O)c3ccc(C(=O)NCC(C)C)cc3n2c1=O (stereo unspecified) | 2.81% | 0.231% | 6.27% | 4.33% | 4.3%
23 | Cc1cncc2cccc(S(=O)(=O)N3CCCNC[C@@H]3C)c12 |  | -5.75% |  | -17.9% | -2.48%
24 | COc1cc(C[C@H]2COC(=O)[C@@H]2Cc2ccc(O)c(OC)c2)ccc1O | -5.5% | 4.47% | 9.64% | -10.9% | 2.1%
25 | COc1ccc(CN2C(=O)c3nc4ccccc4n3CC2(C)C(=O)NCCC(C)C)cc1 (stereo unspecified) | -2.11% | -3.86% | 6.58% | 8.15% | 3.94%
26 | CCCOc1ccc(CN2C(=O)c3cc4occc4n3CC2(C)C(=O)NC2CCCCC2C)cc1 (stereo unspecified) | -8.71% | 4.83% | -7.53% | -8.37% | -6.55%
27 | CCCN1C(=O)c2c(C(=O)NCc3cccc(OC)c3)ncn2CC1(C)C(=O)NC1CCCC1 (stereo unspecified) | 1.87% | 1.86% | 4.61% | 4.11% | 9.1%

Row | SMILES | activity change, negative = inhibition [1] | activity change, negative = inhibition [2] | activity change, negative = inhibition [3] | activity change, negative = inhibition [4] | activity change, negative = inhibition [5]
28 | CC1(C(=O)NCc2ccccc2)Cn2nc(-c3ccccc3)cc2C(=O)N1Cc1ccco1 (stereo unspecified) | -3.78% | 4.83% | 0.497% | 1.03% | 0.512%
29 | COC(=O)c1cc2n(n1)CC(C)(C(=O)NC1CCC(C)CC1)N(c1cc(Cl)ccc1C)C2=O (stereo unspecified) | 8.9% | 5.86% | -3.04% | 5.85% | 6.79%
30 | COc1ccccc1C1(CC(=O)O)CCOC(C)(C)C1 (stereo unspecified) | 1.07% | 0.173% | 5.18% | 13.7% | 1.24%
31 | CCOC(=O)c1cc2n(n1)CC(C)(C(=O)NCc1ccc(F)cc1)N(c1cc(C)cc(C)c1)C2=O (stereo unspecified) | 2.2% | 4.1% | -1.24% | -6.69% | -2.37%
32 | CCCN1C(=O)c2c(C(=O)NCCC(C)C)ncn2CC1(C)C(=O)NCCC(C)C (stereo unspecified) | -1.84% | 2% | 4.92% | -1.74% | 8.65%
33 | CCCCNC(=O)c1cc2n(n1)CC(C)(C(=O)NCc1ccccc1)N(C)C2=O (stereo unspecified) | -0.94% | -0.237% | 5.34% | 0.921% | -0.177%
34 | OC[C@H]1O[C@@H](O[C@H]2[C@H](OCc3ccccc3)O[C@H](CO[C@@H]3OC[C@@H](O)[C@H](O)[C@H]3O)[C@@H](O)[C@@H]2O)[C@H](O)[C@@H](O)[C@@H]1O | 5.32% | 5.12% | 10.9% | -9.69% | 6.02%
35 | c1ccc(CN2CCC[C@H]2c2nc(-c3ccnc(N4CCOCC4)c3)no2)nc1 | -5.23% | -3.02% | -10% | -8.34% | -5.13%
36 | COc1cc2ncnc(Nc3cccc(Cl)c3)c2cc1OC | -38.8% and -59.9% | -26.6% and -31.6% | -38.7% and -68.2% | -71% and -41.9% | -35.4% and -53.9%
37 | COC(=O)c1ncn2c1C(=O)N(Cc1ccc3c(c1)OCO3)C(C)(C(=O)NC1CCCC1)C2 (stereo unspecified) | 2.71% | 2.98% | -3.06% | 1.52% | -3.29%
38 | CC(=O)OCC(=O)[C@@]12O[C@@H]1C[C@H]1[C@@H]3CC=C4C[C@@H](O)CC[C@]4(C)[C@H]3CC[C@@]12C | -4.92% | -4.94% | 1.53% | -14.3% | -0.229%
39 | COc1ccc(CC(=O)N2C[C@@H]3C[C@H](C2)c2c(-c4ccc(NC(C)=O)cc4)ccc(=O)n2C3)cc1 | -6.03% | -5.89% | -1.51% | -4.16% | -8.76%
40 | CC(C)(O)/C=C/C(=O)[C@](C)(O)[C@H]1[C@H](O)C[C@@]2(C)[C@@H]3CC=C4[C@@H](C[C@H](O[C@@H]5O[C@H](CO)[C@@H](O)[C@H](O)[C@H]5O)C(=O)C4(C)C)[C@]3(C)C(=O)C[C@]12C | 4.1% | -0.337% | 4.71% | -6.82% | 3.7%
41 | COc1ccccc1CN1C(=O)c2ccc(-c3ccco3)n2CC1(C)C(=O)NC1CCCCCCC1 (stereo unspecified) | -7.84% | 0% | -4.54% | -15.9% | -6.15%
42 | Cc1ccccc1CN1C(=O)c2cc(C(C)(C)C)nn2CC1(C)C(=O)NCc1ccccc1 (stereo unspecified) | 0.194% | 7.25% | -0.862% | -6.98% | -5.71%
43 | Cc1[nH]nc(C(F)(F)F)c1Cc1sc2c(c1C(=O)N1C[C@](C)(O)CO1)c(=O)n(C)c(=O)n2C(C)C | 4.26% | 6.39% | 4.93% | -8.31% | 5.6%
44 | CCOc1ccc(CNC(=O)c2cc3n(n2)CC(C)(C(=O)NC2CCCCC2)N(C)C3=O)cc1OC (stereo unspecified) | 1.74% | 4.17% | 5.77% | 3.71% | 1.08%
45 | CCCCN1C(=O)c2cc(C(=O)Nc3cccc(CC)c3)nn2CC1(C)C(=O)NC1CCCC1 (stereo unspecified) | 1.63% | 0% | -6.05% | -5.61% | -0.549%
46 | Nc1nc(COC(=O)c2ccc([N+](=O)[O-])cc2)nc(Nc2ccccc2)n1 | -0.715% | -6.32% | -6.82% | -19.2% | -14.4%
47 | O=C(c1ccc(Cl)s1)N1CCC(n2cnnc2-c2ccccc2)C1 (stereo unspecified) | -10.1% | -1.44% | -3.79% | -6.2% | -1.19%
48 | COc1ccc(CNC(=O)[C@H]2O[C@H](CCN(C)CCc3ccccc3)CC[C@@H]2O)cc1 | -5.5% | -9.76% | -7.79% | -16.5% | -9.61%
49 | Clc1ccc(-c2nnn3c2nc(NCC2CCCO2)c2ccccc23)cc1 (stereo unspecified) | -1.99% | 4.35% | 3.1% | 8.79% | -3.38%
50 | Cc1nc(CNc2ncnc3ccc(-c4ccc5c(c4)OCO5)cc23)cs1 |  | -25.1% |  | -40.5% | -32%
51 | CCN(C(=O)CCC(=O)N1CCC(C)(c2noc(C)n2)CC1)c1ccccc1 | 1.64% | 3.93% | 1.45% | 0.1% | 3.39%
52 | Cc1noc(C)c1S(=O)(=O)N1CC(n2cnnc2C2CCCO2)C1 (stereo unspecified) | 0.44% | 5.43% | 1.71% | -1% | 16.7%
53 | COc1ccc(CCNc2nc3c(-c4ccccc4)nnn3c3ccccc23)cc1OC | -1.91% | 0.765% | 5.44% | -1.52% | 0.235%
54 | CC(=O)OC(C)(C)/C=C/C(=O)[C@](C)(O)[C@H]1C(O)C[C@@]2(C)[C@@H]3CC=C4[C@@H](C=C(O[C@@H]5O[C@H](CO)[C@@H](O)[C@H](O)[C@H]5O)C(=O)C4(C)C)[C@]3(C)C(=O)C[C@]12C (stereo partly specified) | 1.43% | 5.96% | 14.3% | -6.29% | 9.16%
